Results reported in PubChem BioAssay AID720708 (National Center for Advancing Translational Sciences (NCATS), 2013).
In all, about 360,000 compounds went through this assay and about 660 (0.18%) were called active. Inconclusive means that the source gave no clear call. Such entries were picked first, then a sample of the others. Calls come from the whole dose curve; as a rule, active = well fitted inhibition curve with a large enough effect; inconclusive = small, poorly fitted or top-dose-only effect; inactive = no such curve, though single readings can be large or run the other way. Potencies of inconclusive entries are left out as doubtful fits.

The compounds below were run against Rap guanine nucleotide exchange factor 4 (Homo sapiens) (UniProt Q8WZA2) (assay: qHTS for Antagonist of cAMP-regulated guanine nucleotide exchange factor 2 (EPAC2): primary screen). Conditions: EPAC2 GEF exchange of Rap1B-BODIPY-GDP, fluorescence; series mostly up to 114 µM.
Sequence of UniProt Q8WZA2 (Q8WZA2 whole entry, looked up): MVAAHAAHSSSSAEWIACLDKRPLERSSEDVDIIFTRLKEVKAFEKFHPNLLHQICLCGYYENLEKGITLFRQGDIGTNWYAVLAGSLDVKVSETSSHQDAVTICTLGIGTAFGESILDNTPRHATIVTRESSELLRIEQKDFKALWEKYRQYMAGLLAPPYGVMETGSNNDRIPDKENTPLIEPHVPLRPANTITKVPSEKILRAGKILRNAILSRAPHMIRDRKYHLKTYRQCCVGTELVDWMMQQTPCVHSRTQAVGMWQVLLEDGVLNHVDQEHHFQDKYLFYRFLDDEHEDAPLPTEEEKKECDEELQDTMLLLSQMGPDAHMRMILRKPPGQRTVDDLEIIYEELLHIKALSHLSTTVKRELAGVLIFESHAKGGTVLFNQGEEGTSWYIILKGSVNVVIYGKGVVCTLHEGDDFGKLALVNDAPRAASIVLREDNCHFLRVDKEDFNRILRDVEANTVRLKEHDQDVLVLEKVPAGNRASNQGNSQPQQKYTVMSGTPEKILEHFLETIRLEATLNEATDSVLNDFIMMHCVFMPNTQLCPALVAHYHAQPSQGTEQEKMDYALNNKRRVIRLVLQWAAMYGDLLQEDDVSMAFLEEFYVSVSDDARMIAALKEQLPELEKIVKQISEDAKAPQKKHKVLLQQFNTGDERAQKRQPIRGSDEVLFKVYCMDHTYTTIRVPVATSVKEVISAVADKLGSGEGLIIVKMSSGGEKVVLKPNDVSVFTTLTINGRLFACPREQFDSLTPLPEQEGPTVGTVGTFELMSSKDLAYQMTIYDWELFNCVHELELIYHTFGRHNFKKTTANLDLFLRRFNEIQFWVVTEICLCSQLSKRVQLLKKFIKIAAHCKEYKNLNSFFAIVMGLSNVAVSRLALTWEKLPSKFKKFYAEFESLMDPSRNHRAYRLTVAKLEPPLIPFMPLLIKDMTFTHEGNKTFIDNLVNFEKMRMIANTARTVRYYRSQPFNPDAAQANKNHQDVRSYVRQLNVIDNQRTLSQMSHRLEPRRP
Note: nearly all actives have a fitted effect of over 45% in size.
Potency is the fitted concentration of half-maximal effect; tags give direction and shape of the fitted curve.

| Structure (SMILES) | Potency |
| --- | --- |
| COCCCn1c(N)c(C(=O)NCCC(C)C)c2nc3ccccc3nc21 | inconclusive [inhibitor, partial curve] |
| COC(=O)[C@@]1(C)[C@H]2C(=O)N(Cc3ccccc3)C(=O)[C@H]2[C@H]2CN=C(SCc3ccc(Cl)cc3)N21 | inconclusive [inhibitor, full curve] |
| Cc1ccc(N)c(C(=O)c2ccc(Br)cc2)c1 | inconclusive [inhibitor, partial curve] |
| COc1ccccc1-n1c(-c2ccccc2Cl)nc2ccccc2c1=O | inconclusive [inhibitor, partial curve] |
| COc1ccc(CN2C(=O)NC(=O)/C(=C\c3cc(OC)c(OC)c(OC)c3)C2=O)cc1 | inactive |
| CCOC(=O)C1(CCOc2ccccc2)CCN(C(C)CSC)CC1 (centres undefined) | inactive |
| Cc1ccc(N2C(=O)NC(=O)/C(=C\c3cc(C)n(-c4sc5c(c4C#N)CCCC5)c3C)C2=O)cc1 | inconclusive [inhibitor, partial curve, poor fit] |
| CCOC(=O)[C@]12Cc3ccccc3[C@H]1N(Cc1ccccc1)C(=O)c1cc(OC)ccc12 | active: 28.2 µM |
| COc1ccc(-c2cc(=NCCCCCC(=O)O)c3cc(C)ccc3o2)cc1 | inconclusive [inhibitor, partial curve] |
| CCCCCCCCCCCCCCCC[N+](C)(C)C | inconclusive [inhibitor, full curve, poor fit] |
| Cn1cccc1/C=C1/C(=O)NC(=O)N(Cc2ccc(F)cc2)C1=O | inactive |
| CSc1nc(N)c(N=Nc2ccc([As](=O)(O)O)cc2)c(=O)[nH]1 | inactive |
| O=[N+]([O-])c1cccc(CN2CCN(Cc3ccc(Cl)cc3)CC2)c1 | inactive |
| CCOC(=O)[C@]12Cc3cc(OC)ccc3[C@H]1N(C(C)C)C(=O)c1cc(OC)ccc12 | inconclusive [inhibitor, partial curve] |
| O=C(c1cc(-c2ccc(Cl)cc2)n(-c2ccc(Cl)cc2Cl)n1)N1CCOCC1 | inactive |
| CCC(C#N)(CC)P(=S)(c1ccccc1)c1ccccc1 | inconclusive [inhibitor, single point] |
| COc1cccc(C(c2nnnn2Cc2ccccc2)N2CCC(n3c(=O)[nH]c4ccccc43)CC2)c1OC (centres undefined) | inconclusive [inhibitor, partial curve] |
| c1ccc(CCn2nnnc2CN2CCC(n3nnc4ccccc43)CC2)cc1 | inactive |
| Clc1ccc(COC(Cn2ccnc2)c2ccc(Cl)cc2Cl)cc1 (centres undefined) | inconclusive [inhibitor, single point] |
| COc1ccc(-c2cc(=Nc3cccc(C(=O)O)c3)c3cc(C)ccc3o2)cc1 | inconclusive [inhibitor, full curve] |
| Cc1ccc(C)c(NP(=O)(Oc2ccccc2)Oc2ccccc2)c1 | inconclusive [inhibitor, partial curve, poor fit] |
| COc1cc2c(cc1OC)C1C(=O)c3ccc4c(c3OC1CO2)CC(C(C)C)O4 (centres undefined) | inconclusive [inhibitor, full curve] |
| Cc1cccc(N=Cc2c(O)n(-c3ccccc3C)c(=O)[nH]c2=O)c1 | inactive |

| Structure (SMILES) | Potency |
| --- | --- |
| COc1ccc(N=Cc2c(O)n(Cc3ccccc3)c(=S)[nH]c2=O)c(OC)c1 | inactive |
| Cc1ccc(-n2c(=S)[nH]c3ccccc3c2=O)cc1F | inactive |
| CCc1ccc(NP(=O)(Oc2ccccc2F)Oc2ccccc2F)cc1 | inconclusive [inhibitor, full curve] |
| c1ccc(Nc2ccc(Nc3ccccc3)cc2)cc1 | inactive |
| CC1=C2CCC3C(CCC4=CC(=O)CCC43C)C2CC1 (centres undefined) | inconclusive [inhibitor, partial curve] |
| CC[C@H](C)/C=C(C)/C=C/C1=CC2=C(Cl)C(=O)[C@](C)(OC(C)=O)C(=O)C2=CO1 | active: 8.91 µM |
| COc1ccc(-n2c(-c3ccccc3Br)nc3ccccc3c2=O)cc1 | inconclusive [inhibitor, partial curve] |
| c1ccc(-c2nc(N3CCOCC3)s[n+]2-c2ccccc2)cc1 | inactive |
| COc1ccc(-n2nnnc2C(c2ccnc3ccccc23)N2CCC(n3c(=O)[nH]c4ccccc43)CC2)cc1 (centres undefined) | inconclusive [inhibitor, full curve] |
| CC[C@@H](CO)NC(=O)[C@@H]1C=C2c3cccc4c3c(cn4C)C[C@H]2N(C)C1 | inactive |
| COc1ccccc1N1C(=O)NC(=O)/C(=C/c2ccc([N+](=O)[O-])s2)C1=O | inactive |
| COC(=O)C1=C(c2ccccc2)C[C@@H]2CC[C@H]1N2C(=O)NCc1ccc(C(F)(F)F)cc1 | inconclusive [inhibitor, single point] |
| O=P(OC1=CCCCC1)(c1ccccc1)c1ccccc1 | inconclusive [inhibitor, partial curve] |
| COc1cc2c(cc1/C=C/[N+](=O)[O-])OCO2 | inactive |
| O=[N+]([O-])c1cc([As](=O)(O)c2ccc(O)c([N+](=O)[O-])c2)ccc1O | active: 17.8 µM |
| c1ccc(Nc2cccc3ccccc23)cc1 | inconclusive [inhibitor, partial curve] |
| COC(=O)c1cn(C(=O)c2cccc3ccccc23)c2ccccc12 | active: 8.91 µM |
| COc1ccc(C(=O)c2nc3ccccc3n2C(C)C)cc1 | inconclusive [inhibitor, partial curve] |
| CCCCOc1nc2ccccc2c(=O)n1-c1ccccc1 | inconclusive [inhibitor, single point] |
| Cc1ccc(OP(=O)(NC(C)c2ccccc2)Oc2ccc(C)cc2)cc1 (centres undefined) | inconclusive [inhibitor, partial curve] |
| Clc1ccc(-c2nc3ccc(Cl)cn3c2CN2CCCCC2)cc1 | inconclusive [inhibitor, full curve, poor fit] |
| O=c1[nH]c(=O)n(-c2cccc(F)c2)c(O)c1/C=C1\C=Nc2ccccc21 | inconclusive [inhibitor, single point] |
| COC1C(C)OC(OC2CC(C)(O)Cc3cc4c(c(O)c32)C(=O)c2c(O)cc3c(c2C4=O)OC2OC3(C)C(O)C(N(C)C)C2O)C(OC)C1(C)OC (centres undefined) | inactive |

| Structure (SMILES) | Potency |
| --- | --- |
| CCCCCN1C(=O)c2ccccc2[C@@]2(C(=O)OCC)Cc3cc(OC)ccc3[C@@H]12 | inconclusive [inhibitor, partial curve] |
| CCOP(=O)(C1=C(O)C(=O)C(C(C)(C)C)=CC1=O)c1ccccc1 (centres undefined) | inconclusive [inhibitor, partial curve] |
| C[C@]12CC[C@H]3C(CCC4(O)CC(O)CC[C@]34C=O)C1=CC[C@H]2c1ccc(=O)oc1 (some centres undefined) | inactive |
| CC(C)c1ccc(C(c2c(O)c3ccccc3oc2=O)c2c(O)c3ccccc3oc2=O)cc1 | active: 44.7 µM |
| Cc1cc(C(C#N)c2ccc(Cl)cc2)c(Cl)cc1NC(=O)c1cc(I)cc(I)c1O (centres undefined) | active: 50.1 µM |
| Cc1ccc(NP(=O)(Oc2ccccc2F)Oc2ccccc2F)cc1C | inconclusive [inhibitor, partial curve] |
| O=C(O)c1nn(Cc2ccc(Cl)cc2Cl)c2ccccc12 | inconclusive [inhibitor, full curve, poor fit] |
| CCn1nc(-c2ccccc2)nc2c(=O)n(C)c(=O)nc1-2 | inconclusive [inhibitor, full curve, poor fit] |
| CCCCOCCCn1c(N)c(C(=O)OC(C)COC)c2nc3ccccc3nc21 (centres undefined) | inactive |
| CCCCOC(=O)c1ccccc1C(=O)OCCCC | inconclusive [inhibitor, partial curve] |
| COc1ccc(NP(=O)(Oc2ccccc2OC)Oc2ccccc2OC)cc1 | inconclusive [inhibitor, partial curve] |
| COc1ccc(-n2c(-c3ccccc3)nc3ccccc3c2=O)cc1 | inconclusive [inhibitor, partial curve] |
| COc1ccc(C2C=C(C)Oc3c2c(=O)oc2ccccc32)cc1OC (centres undefined) | inconclusive [inhibitor, partial curve] |
| COc1ccccc1-n1c(-c2ccccc2Br)nc2ccccc2c1=O | inconclusive [inhibitor, partial curve] |
| COC(=O)C1=C(c2ccc(F)cc2F)C[C@@H]2CC[C@H]1N2C(=O)NC1Cc2ccccc2C1 | inconclusive [inhibitor, single point] |
| O=P(Nc1cccnc1)(Oc1ccccc1Cl)Oc1ccccc1Cl | active: 56.2 µM |
| COc1ccc(CN2CC=C(c3ccc(F)cc3)CC2)cc1Br | inactive |
| Cc1cc(N=Nc2ccccc2C)ccc1N | inconclusive [inhibitor, partial curve] |
| CCOC(=O)C1(c2ccccc2)Oc2ccccc2C(c2ccc(OC)cc2)=C1C(=O)OC (centres undefined) | inconclusive [inhibitor, partial curve] |
| CCC(=O)c1cn(Cc2ccccc2)c2ccccc12 | inconclusive [inhibitor, partial curve] |
| c1ccc2c(c1)[IH]c1ccccc1-2 | inconclusive [inhibitor, single point] |
| CC(C)C[C@H]1COc2cc(N3CCN(C)CC3)ccc2S(=O)(=O)N1 | inactive |
| CCCCn1nnnc1C(c1ccc(OC)cc1)N1CCC2(CC1)C(=O)NCN2c1ccccc1 (centres undefined) | inconclusive [inhibitor, full curve, poor fit] |
